Whole data set: some 33,000 sequences, median “E-score (-0.5 to 0.5)” near -0.017, cut for the highest 2% near 0.3. The list shows a part of the results.
Target: T1, Sut1 (UniProt P53032)
T1 sequence: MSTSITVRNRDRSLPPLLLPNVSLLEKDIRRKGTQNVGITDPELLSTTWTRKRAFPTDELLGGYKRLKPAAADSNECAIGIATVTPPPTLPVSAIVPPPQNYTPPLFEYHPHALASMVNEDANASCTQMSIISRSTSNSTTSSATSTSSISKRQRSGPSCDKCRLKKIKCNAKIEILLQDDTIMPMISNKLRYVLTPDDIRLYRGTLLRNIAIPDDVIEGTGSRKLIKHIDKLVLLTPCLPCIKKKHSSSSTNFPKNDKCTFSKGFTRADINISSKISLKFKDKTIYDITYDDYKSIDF
Assay: PBM E-score (8-mer binding enrichment) (E-score (-0.5 to 0.5)); higher = stronger / more preferred TF binding; most listed sequences are background and not binding sites
Details: protein concentration: 200 nM; construct: GST-full length
Protocol: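 Universal 'all 10-mer' protein binding microarrays (Agilent AMADID 015681) probed with GST-tagged S. cerevisiae TFs (full-length or DBD) made by in vitro transcription/translation (PURExpress), about 100-200 nM. Bound TF was detected with fluorescent anti-GST. Each ungapped 8-mer (which stands for itself and its reverse complement) is scored by the PBM enrichment score (E-score), a modified Wilcoxon-Mann-Whitney statistic from -0.5 to +0.5, computed with the Universal PBM Analysis Suite. Scale: above 0.35 generally sequence-specific binding.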

Row | Sequence | PBM E-score
1 | AAAGCTGG | -0.115
2 | CACAGTCG | -0.00255
3 | ATGCAACA | -0.104
4 | TATATCCA | 0.0641
5 | AACCAGGG | -0.129
6 | GTAGGAAA | -0.0355
7 | ATATATAC | 0.31
8 | AGCTCCCG | -0.173
9 | CATTCAAA | 0.217
10 | GCTCCGTA | 0.291
11 | CGCTGCAC | -0.281
12 | CTGTTAAA | 0.162
13 | GCCGTAAC | -0.118
14 | ACCAGGGG | -0.34
15 | AAATCGAG | 0.0584
16 | GGTTTGTA | 0.0988
17 | CGGCCTTC | 0.161
18 | CCATGTAC | -0.00338
19 | ACTAATAC | 0.294
20 | GACCCACA | 0.00152
21 | ACAATTCG | 0.124
22 | AGATGTTC | -0.0198
23 | CGGCACAA | -0.115
24 | AAATCCGC | -0.0542
25 | CCGCCCGA | -0.0659

Row | Sequence | PBM E-score
26 | ATACGAAA | 0.139
27 | CAAGCCAC | -0.278
28 | AGACCCTA | -0.0166
29 | ATTCAGCG | 0.0617
30 | AAATACGC | 0.183
31 | AAGTCTTC | -0.0836
32 | CATTTTTC | 0.117
33 | AACAATAC | 0.0474
34 | CAGGTATC | -0.105
35 | ATTACAAA | 0.272
36 | TCACCACA | -0.0523
37 | CAGACAGC | -0.104
38 | ACAAGAGC | -0.133
39 | GTGCGTAA | -0.0657
40 | AATTCCTG | -0.138
41 | ATGTATTG | 0.29
42 | AATGCGCA | 0.223
43 | AGTTACGG | 0.0959
44 | CTTCGCAC | -0.173
45 | TGGAACAA | 0.0534
46 | GTCTCATA | 0.0188
47 | CGTAGGGC | -0.335
48 | AATTGACA | 0.128
49 | ACGCCGCA | -0.25
50 | TCCCTCCA | -0.248

Row | Sequence | PBM E-score
51 | CATAGAAG | 0.104
52 | CAGCGGTA | -0.0702
53 | AGCCTAGA | -0.224
54 | CGAGAGCC | -0.161
55 | ACCTAAGT | 0.0986
56 | ATTGTCAA | -0.0624
57 | AACTAACC | 0.336
58 | ACGGGACT | -0.0468
59 | GATAAATC | 0.26
60 | CAGTTACC | -0.132
61 | AAAAGCGC | 0.131
62 | GAAATGGC | 0.0237
63 | TCATTCCA | 0.0304
64 | GTGCCGCA | -0.0409
65 | CAATGGCG | -0.0729
66 | TCGAGGCA | -0.0536
67 | AGCTCGAA | 0.171
68 | CATTCCTA | -0.00994
69 | ACTCCTTA | -0.0269
70 | GCCCACAA | -0.174
71 | ACGGCACC | -0.125
72 | TCGAATCA | 0.0056
73 | AAGTATAA | 0.209
74 | CAGCCGGA | 0.276
75 | AATACTGC | 0.0484

Row | Sequence | PBM E-score
76 | GTCGGGGA | 0.0429
77 | GACTCTGA | -0.0272
78 | ACTTACGC | 0.134
79 | CGCCCCCG | -0.0475
80 | TGGATGAA | 0.0547
81 | AAGGCCCC | -0.167
82 | GCAGGCGC | -0.169
83 | GCGCACGC | -0.13
84 | ATTCGAAC | 0.0762
85 | ACAATCAC | 0.135
86 | AGGGAGCC | -0.204
87 | CAATGGTA | 0.135
88 | CTGGCTAA | -0.101
89 | ACGAACAA | 0.234
90 | AATTAGGG | -0.121
91 | ACTGTGTC | -0.106
92 | CGGGGACG | -0.148
93 | GAAGAATA | 0.0886
94 | CACGCACA | -0.0675
95 | GCCACACA | -0.0105
96 | AGTGTAAC | -0.0771
97 | CGGAGTAG | 0.49
98 | CCGAGGAG | -0.0382
99 | AGATAGCT | 0.0787
100 | ACGAGGCG | 0.0233

Row | Sequence | PBM E-score
101 | GACAATTA | 0.113
102 | AAGAATAC | 0.105
103 | ATACTCGG | 0.0187
104 | TGCTCACA | -0.277
105 | AGTGTTTC | 0.00337
106 | AGTTGAAC | -0.061
107 | ATGCTGTG | -0.0226
108 | ATAACGTA | 0.195
109 | CACGAACA | 0.0574
110 | CATGTATA | 0.0763
111 | CGCCGGGA | -0.203
112 | GCGCTCCC | -0.261
113 | ATGTTTGA | 0.119
114 | TCCTGGCA | -0.111
115 | ATGAGTGG | 0.00025
116 | CCAAGGCC | -0.303
117 | GCTTAGAC | -0.227
118 | GCGAATCA | 0.103
119 | CCCCTGGA | -0.322
120 | ACGCGCAT | -0.137
121 | CAATAAAG | 0.112
122 | TAAGAGCA | 0.0994
123 | AGCGAACA | -0.00025
124 | ACGATCGC | -0.0861
125 | TCCGTGAA | 0.271

Row | Sequence | PBM E-score
126 | CTACTGGA | -0.165
127 | ACCCCCTA | -0.376
128 | CACTTGAG | -0.177
129 | GTAAAGGA | 0.0266
130 | AGGGACAA | -0.163
131 | AAATGATT | 0.311
132 | AGATATCC | 0.0562
133 | ATGTCAGA | -0.0898
134 | TCCTTGCA | -0.188
135 | AGCCCCCA | -0.424
136 | GTTTCGAA | 0.0889
137 | AGGTCTCG | -0.00502
138 | GCAGAACA | 0.0378
139 | GTACGAAC | 0.156
140 | ACCAACCG | 0.0755
141 | GCGAGGCC | -0.107
142 | GACCAGAA | -0.0635
143 | GGGCCTTA | -0.289
144 | ACGAATAA | 0.202
145 | GCCGGGCC | -0.0944
146 | AGGTCAGG | -0.175
147 | ATCTGGAC | -0.0329
148 | ATTTTAGC | 0.016
149 | GGATTTCA | 0.117
150 | CGCGTGTC | 0.00193

Row | Sequence | PBM E-score
151 | TATGGGCA | -0.206
152 | GCGGCCCC | -0.274
153 | TGTTTAAA | 0.111
154 | ACCTGGTA | -0.25
155 | GAAAAGCC | -0.0607
156 | ATCATACA | 0.314
157 | ATCATTAG | 0.0427
158 | GAACAAGC | -0.126
159 | ATTAGGTG | 0.0551
160 | ACAGCTAA | -0.206
161 | GCGGAAGA | -0.02
162 | CGCTCATC | -0.0962
163 | CTTGGTCA | 0.0288
164 | GCACGCTA | -0.187
165 | AGGGCTAC | -0.234
166 | ATGGGTCC | -0.00462
167 | AGCAGCTC | -0.143
168 | CAGATCGC | -0.143
169 | GGGTCACC | -0.274
170 | ATATCCCC | 0.0201
171 | AGCGGGAG | -0.135
172 | CGGTCACG | -0.101
173 | GCCGGCTA | 0.0118
174 | ACGGTCCC | -0.1
175 | AGCAAACC | 0.105

Row | Sequence | PBM E-score
176 | CTGACGAA | -0.097
177 | AGAGTCGA | -0.00899
178 | GCACTGCA | -0.173
179 | GACGCTAA | -0.156
180 | CCCCACCA | -0.165
181 | ATGGGATC | -0.0599
182 | ATCTAGTC | 0.181
183 | CGTTATGA | 0.0561
184 | CGTCCTCC | -0.109
185 | AGCTAAAC | 0.0208
186 | AAACTTAC | 0.198
187 | AAAACTGT | 0.0755
188 | CTCGATCA | 0.105
189 | ACGCGAAA | 0.0318
190 | AGTCACTC | 0.0366
191 | AGTTGATA | 0.194
192 | CTGAACAG | -0.0485
193 | GACTCACA | 0.0376
194 | GTCCCGCA | -0.159
195 | GCGCTGCA | -0.114
196 | CTGGAACA | 0.047
197 | CGCGCTGC | -0.2
198 | CCCGCTGC | -0.256
199 | CACCTGTC | -0.0444
200 | AGCACTCC | 0.221

Row | Sequence | PBM E-score
201 | GGTATTCA | 0.134
202 | GTCTTATA | 0.114
203 | ACAGGGCA | -0.0896
204 | CAGATAAG | -0.00748
205 | AAATCACA | -0.0404
206 | ATTCAGTC | -0.00502
207 | AAAATAGA | 0.319
208 | CGATCCCC | -0.0782
209 | AGCGGCCA | -0.158
210 | CCCGTGCC | -0.126
211 | GATGCTAC | -0.0972
212 | AGCTACAA | 0.0435
213 | ATGATGGC | -0.143
214 | ACGAGAGA | -0.233
215 | CTATGAGA | 0.0291
216 | CAGGTTAA | -0.243
217 | AAACTCTA | 0.206
218 | AAAATCTA | 0.196
219 | CAGTTATC | 0.0171

— the supplement of paper PMC3334620
